B1: CAGUAGC (DNA:RNA)
RNA: GGGAGACCGGAAUUCAGAUUGUCCCAGUAGCUUAAAUCCCGUCGUAGCCACCA
DNA 1: CAATCTGAATTCCGGTCTCCC
DNA 2: TGGTGGCTACGACGGGATT
B2: UAAGCAC (DNA:RNA)
RNA: B1 RNA with C25U, G27A, U28G, A29C, G30A
DNA 1: CAATCTGAATTCCGGTCTCCC
DNA 2: TGGTGGCTACGACGGGATT
B3: CGUCCCA (DNA:RNA)
RNA: B1 RNA with A26G, G27U, U28C, A29C, G30C, C31A
DNA 1: CAATCTGAATTCCGGTCTCCC
DNA 2: TGGTGGCTACGACGGGATT
B4: CAUGCAC (DNA:RNA)
RNA: B1 RNA with G27U, U28G, A29C, G30A
DNA 1: CAATCTGAATTCCGGTCTCCC
DNA 2: TGGTGGCTACGACGGGATT
B5: ACGUCUC (DNA:RNA)
RNA: B1 RNA with C25A, A26C, A29C, G30U
DNA 1: CAATCTGAATTCCGGTCTCCC
DNA 2: TGGTGGCTACGACGGGATT
B6: ACAGUGG (DNA:RNA)
RNA: B1 RNA with C25A, A26C, G27A, U28G, A29U, C31G
DNA 1: CAATCTGAATTCCGGTCTCCC
DNA 2: TGGTGGCTACGACGGGATT
B7: UACAGCG (DNA:RNA)
RNA: B1 RNA with C25U, G27C, U28A, A29G, G30C, C31G
DNA 1: CAATCTGAATTCCGGTCTCCC
DNA 2: TGGTGGCTACGACGGGATT
B8: GUCUUUG (DNA:RNA)
RNA: B1 RNA with C25G, A26U, G27C, A29U, G30U, C31G
DNA 1: CAATCTGAATTCCGGTCTCCC
DNA 2: TGGTGGCTACGACGGGATT
B9: AGCCAGC (DNA:RNA)
RNA: B1 RNA with C25A, A26G, G27C, U28C
DNA 1: CAATCTGAATTCCGGTCTCCC
DNA 2: TGGTGGCTACGACGGGATT
B10: CCUGACG (DNA:RNA)
RNA: B1 RNA with A26C, G27U, U28G, G30C, C31G
DNA 1: CAATCTGAATTCCGGTCTCCC
DNA 2: TGGTGGCTACGACGGGATT
B11: GCGACGC (DNA:RNA)
RNA: B1 RNA with C25G, A26C, U28A, A29C
DNA 1: CAATCTGAATTCCGGTCTCCC
DNA 2: TGGTGGCTACGACGGGATT
B12: GCGUGAG (DNA:RNA)
RNA: B1 RNA with C25G, A26C, A29G, G30A, C31G
DNA 1: CAATCTGAATTCCGGTCTCCC
DNA 2: TGGTGGCTACGACGGGATT
B13: ACAACAC (DNA:RNA)
RNA: B1 RNA with C25A, A26C, G27A, U28A, A29C, G30A
DNA 1: CAATCTGAATTCCGGTCTCCC
DNA 2: TGGTGGCTACGACGGGATT
B14: GAAUUCG (DNA:RNA)
RNA: B1 RNA with C25G, G27A, A29U, G30C, C31G
DNA 1: CAATCTGAATTCCGGTCTCCC
DNA 2: TGGTGGCTACGACGGGATT
B15: UCGCAGU (DNA:RNA)
RNA: B1 RNA with C25U, A26C, U28C, C31U
DNA 1: CAATCTGAATTCCGGTCTCCC
DNA 2: TGGTGGCTACGACGGGATT
B16: CACCUUU (DNA:RNA)
RNA: B1 RNA with G27C, U28C, A29U, G30U, C31U
DNA 1: CAATCTGAATTCCGGTCTCCC
DNA 2: TGGTGGCTACGACGGGATT
B17: CCGUCAU (DNA:RNA)
RNA: B1 RNA with A26C, A29C, G30A, C31U
DNA 1: CAATCTGAATTCCGGTCTCCC
DNA 2: TGGTGGCTACGACGGGATT
B18: UAGGUUA (DNA:RNA)
RNA: B1 RNA with C25U, U28G, A29U, G30U, C31A
DNA 1: CAATCTGAATTCCGGTCTCCC
DNA 2: TGGTGGCTACGACGGGATT
B19: CAUGGAC (DNA:RNA)
RNA: B1 RNA with G27U, U28G, A29G, G30A
DNA 1: CAATCTGAATTCCGGTCTCCC
DNA 2: TGGTGGCTACGACGGGATT
B20: GGAUUGA (DNA:RNA)
RNA: B1 RNA with C25G, A26G, G27A, A29U, C31A
DNA 1: CAATCTGAATTCCGGTCTCCC
DNA 2: TGGTGGCTACGACGGGATT
B21: GUAGUGU (DNA:RNA)
RNA: B1 RNA with C25G, A26U, G27A, U28G, A29U, C31U
DNA 1: CAATCTGAATTCCGGTCTCCC
DNA 2: TGGTGGCTACGACGGGATT
B22: GCGCCAA (DNA:RNA)
RNA: B1 RNA with C25G, A26C, U28C, A29C, G30A, C31A
DNA 1: CAATCTGAATTCCGGTCTCCC
DNA 2: TGGTGGCTACGACGGGATT
B23: AGCACGA (DNA:RNA)
RNA: B1 RNA with C25A, A26G, G27C, U28A, A29C, C31A
DNA 1: CAATCTGAATTCCGGTCTCCC
DNA 2: TGGTGGCTACGACGGGATT
B24: UGUGACG (DNA:RNA)
RNA: B1 RNA with C25U, A26G, G27U, U28G, G30C, C31G
DNA 1: CAATCTGAATTCCGGTCTCCC
DNA 2: TGGTGGCTACGACGGGATT
B25: AGGGGUA (DNA:RNA)
RNA: B1 RNA with C25A, A26G, U28G, A29G, G30U, C31A
DNA 1: CAATCTGAATTCCGGTCTCCC
DNA 2: TGGTGGCTACGACGGGATT
B26: GGAUCAG (DNA:RNA)
RNA: B1 RNA with C25G, A26G, G27A, A29C, G30A, C31G
DNA 1: CAATCTGAATTCCGGTCTCCC
DNA 2: TGGTGGCTACGACGGGATT
B27: AUGAUUU (DNA:RNA)
RNA: B1 RNA with C25A, A26U, U28A, A29U, G30U, C31U
DNA 1: CAATCTGAATTCCGGTCTCCC
DNA 2: TGGTGGCTACGACGGGATT
B28: UCACGCG (DNA:RNA)
RNA: GGGAGACCGGAAUUCAGAUUGUCCUCACGCGUUAAAUCCCGUCGUAGCCACCA
DNA 1: CAATCTGAATTCCGGTCTCCC
DNA 2: TGGTGGCTACGACGGGATT
B29: UGUUAGC (DNA:RNA)
RNA: B1 RNA with C25U, A26G, G27U
DNA 1: CAATCTGAATTCCGGTCTCCC
DNA 2: TGGTGGCTACGACGGGATT
B30: GAACAAU (DNA:RNA)
RNA: B1 RNA with C25G, G27A, U28C, G30A, C31U
DNA 1: CAATCTGAATTCCGGTCTCCC
DNA 2: TGGTGGCTACGACGGGATT
B31: CCUUCAC (DNA:RNA)
RNA: B1 RNA with A26C, G27U, A29C, G30A
DNA 1: CAATCTGAATTCCGGTCTCCC
DNA 2: TGGTGGCTACGACGGGATT

Positions count from the first letter of the chain named. Some of the results follow.

In the assay the target is T1, RBFOX1 RRM RbFoxmut (Fox-RRM*) (Homo sapiens, UniProt Q9NWB1 109-208, R118D;E147R;N151S;E152T).
T1 sequence: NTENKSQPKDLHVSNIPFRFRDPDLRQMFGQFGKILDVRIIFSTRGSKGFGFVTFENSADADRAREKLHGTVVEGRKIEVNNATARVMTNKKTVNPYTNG
The experiment in a line: EMSA; HiTS-Eq, 1 nM pool, 10 min; buffer printed only for the single-RNA assays: 10 mM Tris pH 7.5, 150 mM NaCl, 3.4 mM EDTA, 0.001% NP-40, 30 C. The conditions noted are these: tags: His6 N-terminal (pET28a); label: 5' 32P. Put shortly: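 Relative association constants, normalised to the cognate motif, were derived by comparing read counts of each RNA species with those of the control reaction. The RNA sequenced was the free fraction, separated by 8% native PAGE after a 10 min equilibration in 50 µL of 1 nM 5′-radiolabelled RNA (7 randomized nucleotides) with increasing concentrations of purified wild-type or mutant RbFox RRM.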
Background: In EMSA bound probe runs differently from free probe, usually more slowly.
Turning to B1, the binding signal was 0.103 KA relative to UGCAUGU.

Turning to B2, the binding signal is 0.0696 KA relative to UGCAUGU.

As for B3, the binding signal is 0.0413 KA relative to UGCAUGU.

With B4, the binding signal is 0.115 KA relative to UGCAUGU.

As for B5, the binding signal is 0.0546 KA relative to UGCAUGU.

With B6, the binding signal is 0.103 KA relative to UGCAUGU.

In the case of B7, the binding signal is 0.0734 KA relative to UGCAUGU.

Turning to B8, the binding signal is 0.115 KA relative to UGCAUGU.

In the case of B9, the binding signal is 0.0776 KA relative to UGCAUGU.

Consider B10, for which the binding signal was 0.0748 KA relative to UGCAUGU.

B11: the binding signal was 0.0782 KA relative to UGCAUGU.

With B12, the binding signal is 0.139 KA relative to UGCAUGU.

As for B13, the binding signal is 0.114 KA relative to UGCAUGU.

As to B14, the binding signal is 0.0817 KA relative to UGCAUGU.

As to B15, the binding signal was 0.086 KA relative to UGCAUGU.

For the molecule B16, the binding signal is 0.0811 KA relative to UGCAUGU.

Turning to B17, the binding signal is 0.0814 KA relative to UGCAUGU.

With B18, the binding signal was 0.127 KA relative to UGCAUGU.

As to B19, the binding signal was 0.0903 KA relative to UGCAUGU.

Turning to B20, the binding signal is 0.278 KA relative to UGCAUGU.

As for B21, the binding signal is 0.219 KA relative to UGCAUGU.

Take B22: the binding signal is 0.0773 KA relative to UGCAUGU.

For B23, the binding signal was 0.141 KA relative to UGCAUGU.

As for B24, the binding signal was 0.148 KA relative to UGCAUGU.

As to B25, the binding signal was 0.166 KA relative to UGCAUGU.

In the case of B26, the binding signal was 0.166 KA relative to UGCAUGU.

Consider B27, for which the binding signal was 0.101 KA relative to UGCAUGU.

Regarding B28, the binding signal is 0.125 KA relative to UGCAUGU.

Turning to B29, the binding signal is 0.126 KA relative to UGCAUGU.

Regarding B30, the binding signal was 0.0594 KA relative to UGCAUGU.

In the case of B31, the binding signal was 0.0937 KA relative to UGCAUGU.

For the origin of these results see paper PMC9911399, “Two distinct binding modes provide the RNA-binding protein RbFox with extraordinary sequence specificity”.
